{"source": "the supplement of paper PMC11369174", "about": "“Proteome-scale characterisation of motif-based interactome rewiring by disease mutations” (Molecular Systems Biology, 2024)", "binders": {"B1": {"name": "S8W S8W (peptide)", "chain": "MAKAAASSSLEDLDLSGEEVWRLTSAFQ"}, "B2": {"name": "S492Y S492Y (peptide)", "chain": "MNMFQAPTLPDISDDKDEWQYLDQNEDAFEAQFQKNVRSSG"}, "B3": {"name": "R49C R49C (peptide)", "chain": "EGLFEYDLLPFLSSTISPYYCQSLFRTVLDSGISEVRSDRD"}, "B4": {"name": "R54C R54C (peptide)", "chain": "YDLLPFLSSTISPYYRQSLFCTVLDSGISEVRSDRDKFVIF"}, "B5": {"name": "Y48D Y48D (peptide)", "chain": "GEGLFEYDLLPFLSSTISPYDRQSLFRTVLDSGISEVRSDR"}, "B6": {"name": "Y48H Y48H (peptide)", "chain": "B5 chain with D21H"}, "B7": {"name": "R416P R416P (peptide)", "chain": "QEYKILLDVKTRLEQEIATYPRLLEGEDAHLSSSQFSSGSQ"}, "B8": {"name": "K558E K558E (peptide)", "chain": "IIVMILTYKYLQKPMYEVQWEVVEEINGNNYVYIDPTQLPY"}, "B9": {"name": "P573L P573L (peptide)", "chain": "YEVQWKVVEEINGNNYVYIDLTQLPYDHKWEFPRNRLSFGK"}, "B10": {"name": "V560D V560D (peptide)", "chain": "VMILTYKYLQKPMYEVQWKVDEEINGNNYVYIDPTQLPYDH"}, "B11": {"name": "V560G V560G (peptide)", "chain": "B10 chain with D21G"}, "B12": {"name": "R790W R790W (peptide)", "chain": "IGVKKHLAPFLPNHPVISLKWNEDACPVGTVSAAPWGSSSI"}, "B13": {"name": "L942P L942P (peptide)", "chain": "KIASDCQLPRWHMNDFFHSFPIVFRVLCGEWIETMWDCMEV"}, "B14": {"name": "F61L F61L (peptide)", "chain": "PTAEEEALIEFHRSYRELFELFCNNTTIHGAIRLVCSQHNR"}, "B15": {"name": "L13P L13P (peptide)", "chain": "MAFYSCCWVLLALTWHTSAYPPDQRAQKKGDII"}, "B16": {"name": "R1047Q R1047Q (peptide)", "chain": "KVQRETARKSQWKKWEVVAEQAWKGGTESEMFNKLESIATS"}, "B17": {"name": "V71I V71I (peptide)", "chain": "APVPIAAHASVAGHLSTSTTISSSGAQNSDSTKKTLVTLIA"}, "B18": {"name": "A244V A244V (peptide)", "chain": "LDVAKPDLTAALKEIRTQYEVMASSNMHEAEEWYRSKFADL"}, "B19": {"name": "K236T K236T (peptide)", "chain": "ARQQVHVELDVAKPDLTAALTEIRTQYEAMASSNMHEAEEW"}, "B20": {"name": "R1101K R1101K (peptide)", "chain": "VPGPGLVKDSPLLLQQISAMKLHISQLQHENSILKGAQMKA"}, "B21": {"name": "L1089I L1089I (peptide)", "chain": "ESKLTSQSRENTMLRAKVAQIQTDYDALKRQISTERYERER"}, "B22": {"name": "E248K E248K (peptide)", "chain": "GMRIAWDDEETRDGFRLSSQKAASSFGDDRLLIEKFIDNPR"}}, "experiment_in_all_cases": "mutation enrichment score (mutant vs wild-type peptide binding to bait); baits are purified protein domains named by gene / domain / UniProt id / residues; peptides come from disordered regions of human proteins; higher = mutation enhances binding relative to wild type", "key": {"[1]": {"molecular_target": "GABARAPL2_ATG8__P60520_2_115", "sequence (chain, as listed by the source)": "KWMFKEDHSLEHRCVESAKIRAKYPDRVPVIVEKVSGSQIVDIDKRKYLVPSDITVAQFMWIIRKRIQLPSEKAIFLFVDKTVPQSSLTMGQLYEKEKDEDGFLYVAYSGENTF", "settings": "number of wild-type / mutant comparisons summed (bounds the score): 6, wild-type window: …"}, "[2]": {"molecular_target": "MAP1LC3B_ATG8__Q9GZQ8_2_119", "settings": "number of wild-type / mutant comparisons summed (bounds the score): 6; paper call: no_effect; wild-type window: …"}, "MSN_FERM_1_P26038_1_322": {"molecular_target": "T1, MSN_FERM_1_P26038_1_322", "T1 chain": "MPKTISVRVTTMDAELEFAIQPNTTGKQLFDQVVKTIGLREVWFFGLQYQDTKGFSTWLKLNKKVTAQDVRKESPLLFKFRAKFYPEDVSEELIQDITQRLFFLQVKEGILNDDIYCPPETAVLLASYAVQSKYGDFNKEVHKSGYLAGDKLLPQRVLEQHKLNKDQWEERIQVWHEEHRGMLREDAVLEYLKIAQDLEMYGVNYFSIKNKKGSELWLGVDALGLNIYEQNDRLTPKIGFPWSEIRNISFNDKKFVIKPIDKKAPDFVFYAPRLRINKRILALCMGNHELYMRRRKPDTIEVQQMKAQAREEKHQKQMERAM", "settings": "number of wild-type / mutant comparisons summed (bounds the score): 6; paper call: enhanced; wild-type window: …"}, "RDX_FERM_1_P35241_5_295": {"molecular_target": "T2, RDX_FERM_1_P35241_5_295", "T2 chain": "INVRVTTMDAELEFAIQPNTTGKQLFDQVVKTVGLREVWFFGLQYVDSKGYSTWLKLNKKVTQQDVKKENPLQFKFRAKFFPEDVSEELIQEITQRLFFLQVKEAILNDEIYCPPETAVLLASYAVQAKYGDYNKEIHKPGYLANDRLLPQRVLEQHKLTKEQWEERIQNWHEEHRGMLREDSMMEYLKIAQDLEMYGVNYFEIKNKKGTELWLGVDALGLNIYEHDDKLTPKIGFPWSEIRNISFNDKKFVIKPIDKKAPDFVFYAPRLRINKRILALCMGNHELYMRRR", "settings": "number of wild-type / mutant comparisons summed (bounds the score): 6; paper call: no_effect; wild-type window: …"}, "[3]": {"molecular_target": "MAP1LC3A_ATG8__Q9H492_2_121", "settings": "number of wild-type / mutant comparisons summed (bounds the score): 6; paper call: no_effect; wild-type window: …"}, "SPOP_MATH__O43791_19_176": {"molecular_target": "T3, SPOP_MATH__O43791_19_176", "T3 chain": "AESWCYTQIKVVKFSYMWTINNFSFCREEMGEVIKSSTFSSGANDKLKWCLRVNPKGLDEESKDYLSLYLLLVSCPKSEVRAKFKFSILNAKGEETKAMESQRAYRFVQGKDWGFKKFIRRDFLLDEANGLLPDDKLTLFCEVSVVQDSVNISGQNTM", "settings": "number of wild-type / mutant comparisons summed (bounds the score): 18; paper call: no_effect; wild-type window: …"}, "[4]": {"molecular_target": "USP7_MATH-TRAF__Q93009_53_206", "sequence (chain, as listed by the source)": "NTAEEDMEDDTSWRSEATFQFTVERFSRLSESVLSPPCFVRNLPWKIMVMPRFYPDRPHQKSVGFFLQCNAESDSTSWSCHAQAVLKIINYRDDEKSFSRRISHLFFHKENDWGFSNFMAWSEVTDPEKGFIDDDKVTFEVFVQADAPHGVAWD", "settings": "number of wild-type / mutant comparisons summed (bounds the score): 15; paper call: no_effect; wild-type window: …"}, "GEF_Sec7__Q9Y6D5_639_829": {"molecular_target": "T4, GEF_Sec7__Q9Y6D5_639_829", "T4 chain": "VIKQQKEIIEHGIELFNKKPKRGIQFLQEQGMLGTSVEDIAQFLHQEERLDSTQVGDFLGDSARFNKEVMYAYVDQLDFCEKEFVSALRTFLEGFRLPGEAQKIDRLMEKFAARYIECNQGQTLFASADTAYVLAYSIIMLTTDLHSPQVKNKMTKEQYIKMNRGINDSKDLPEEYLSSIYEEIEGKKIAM", "settings": "number of wild-type / mutant comparisons summed (bounds the score): 6, wild-type window: …"}, "[5]": {"molecular_target": "WDR5_WD_1234567_P61964_21_334", "settings": "number of wild-type / mutant comparisons summed (bounds the score): 6; paper call: no_effect; wild-type window: …"}, "GGA1_VHS__Q9UJY5_1_157": {"molecular_target": "T5, GGA1_VHS__Q9UJY5_1_157", "T5 chain": "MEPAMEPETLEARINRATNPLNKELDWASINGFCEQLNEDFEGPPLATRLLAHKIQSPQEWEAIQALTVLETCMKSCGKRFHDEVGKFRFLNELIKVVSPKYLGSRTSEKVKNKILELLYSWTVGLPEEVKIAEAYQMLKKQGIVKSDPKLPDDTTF", "settings": "number of wild-type / mutant comparisons summed (bounds the score): 5; paper call: no_effect; wild-type window: …"}}, "note": "Changes are numbered by the printed parent chain. Names may count otherwise. Some of the results follow. This is a noisy data set."}
{"binder": "B1", "values": [{"measurement": "mutation enrichment score", "setting": "[1]; paper call: enhanced", "value": 6}]}
{"binder": "B2", "values": [{"measurement": "mutation enrichment score", "setting": "[1]; paper call: no_effect", "value": 1}, {"measurement": "mutation enrichment score", "setting": "[2]", "value": 4}]}
{"binder": "B3", "values": [{"measurement": "mutation enrichment score", "setting": "[1]; paper call: no_effect", "value": -3}, {"measurement": "mutation enrichment score", "setting": "MSN_FERM_1_P26038_1_322", "value": 6}, {"measurement": "mutation enrichment score", "setting": "RDX_FERM_1_P35241_5_295", "value": 3}]}
{"binder": "B4", "values": [{"measurement": "mutation enrichment score", "setting": "[1]; paper call: no_effect", "value": -3}]}
{"binder": "B5", "values": [{"measurement": "mutation enrichment score", "setting": "[1]; paper call: no_effect", "value": -3}, {"measurement": "mutation enrichment score", "setting": "RDX_FERM_1_P35241_5_295", "value": 4}]}
{"binder": "B6", "values": [{"measurement": "mutation enrichment score", "setting": "[1]; paper call: no_effect", "value": -3}]}
{"binder": "B7", "values": [{"measurement": "mutation enrichment score", "setting": "[1]; paper call: no_effect", "value": 3}, {"measurement": "mutation enrichment score", "setting": "[3]", "value": 4}]}
{"binder": "B8", "values": [{"measurement": "mutation enrichment score", "setting": "[1]; paper call: no_effect", "value": 1}]}
{"binder": "B9", "values": [{"measurement": "mutation enrichment score", "setting": "[1]; paper call: no_effect", "value": 0}]}
{"binder": "B10", "values": [{"measurement": "mutation enrichment score", "setting": "[1]; paper call: no_effect", "value": 0}]}
{"binder": "B11", "values": [{"measurement": "mutation enrichment score", "setting": "[1]; paper call: no_effect", "value": 0}]}
{"binder": "B12", "values": [{"measurement": "mutation enrichment score", "setting": "[1]; paper call: no_effect", "value": -2}]}
{"binder": "B13", "values": [{"measurement": "mutation enrichment score", "setting": "[1]; paper call: no_effect", "value": 2}]}
{"binder": "B14", "values": [{"measurement": "mutation enrichment score", "setting": "[1]; paper call: no_effect", "value": -2}]}
{"binder": "B15", "values": [{"measurement": "mutation enrichment score", "setting": "[1]; paper call: no_effect", "value": 3}]}
{"binder": "B16", "values": [{"measurement": "mutation enrichment score", "setting": "[1]; paper call: no_effect", "value": 2.1}]}
{"binder": "B17", "values": [{"measurement": "mutation enrichment score", "setting": "[1]; paper call: no_effect", "value": -4}, {"measurement": "mutation enrichment score", "setting": "SPOP_MATH__O43791_19_176", "value": -3}, {"measurement": "mutation enrichment score", "setting": "[4]", "value": -1.4}]}
{"binder": "B18", "values": [{"measurement": "mutation enrichment score", "setting": "GEF_Sec7__Q9Y6D5_639_829; paper call: enhanced", "value": 6}]}
{"binder": "B19", "values": [{"measurement": "mutation enrichment score", "setting": "GEF_Sec7__Q9Y6D5_639_829; paper call: enhanced", "value": 6}, {"measurement": "mutation enrichment score", "setting": "[5]", "value": 1}]}
{"binder": "B20", "values": [{"measurement": "mutation enrichment score", "setting": "GEF_Sec7__Q9Y6D5_639_829; paper call: no_effect", "value": 6}]}
{"binder": "B21", "values": [{"measurement": "mutation enrichment score", "setting": "GEF_Sec7__Q9Y6D5_639_829; paper call: no_effect", "value": -2}]}
{"binder": "B22", "values": [{"measurement": "mutation enrichment score", "setting": "GGA1_VHS__Q9UJY5_1_157", "value": -2}]}
